Reference: PubChem BioAssay AID504884 (Broad Institute, 2011)
The campaign covered roughly 360,000 compounds. About 230 (0.064%) were called active. The shares of active, inactive and inconclusive entries below differ from those in the screen. Rule as the data show it: active = activity above about 50% (passing the limit was not always enough); inconclusive = no clear call, values can overlap the other calls.

Each molecule was assayed on DNA topoisomerase I (Yersinia pestis CO92) (assay: Yersinia pestis topoisomerase I inhibitors, primary screen, biochemical, cleavage product accumulation, plate reader, single point (AID 504884)). Conditions: Y. pestis Topo-I cleavage product accumulation, at 10 µM, stronger effect = higher value.

| Structure (SMILES) | activity |
| --- | --- |
| COc1ccc(CN2CCN(C(=O)C3CC(=O)N(C4CCCCCC4)C3)CC2)c(OC)c1OC (stereo unspecified) | active: 73.5% |
| O=C(c1ccc(COc2ccc(Cl)cc2Cl)o1)N1CCCC1 | inconclusive: 54.8% |
| CC1CCN(S(=O)(=O)c2ccc3c(c2)C(Cl)(Cl)C(=O)N3)CC1 | inconclusive: 52% |
| CN(CC(=O)Nc1ccc(F)cc1)C(=O)COC(=O)Cc1cccs1 | inactive: 1.32% |
| O=C(NCc1ccccn1)c1cc(Cl)ccc1OCc1ccccc1 | inconclusive: 60.1% |
| C=CCSc1nnc(CSc2nc3sc4c(c3c(=O)[nH]2)CCCC4)n1-c1ccccc1 | inconclusive: 50.1% |
| CC1CCCCC1n1c(-c2cccnc2)n[nH]c1=S (stereo unspecified) | inconclusive: 79.1% |
| Brc1ccc(OCCOCCOc2cccc3cccnc23)cc1 | inconclusive: 55.3% |
| CC1CC(=O)N(c2ccc(NCCc3ccccc3)c([N+](=O)[O-])c2)C1=O (stereo unspecified) | inactive: 16.4% |
| CCCCCCCCNCCS(=O)(=O)NCc1ccccc1 | inconclusive: 54.6% |
| Cn1c(SCc2ccc(Br)cc2)nc2c(c1=O)SCC2 | inconclusive: 50.3% |
| CCCn1c(=O)c(C(=O)NCC2CCCO2)c(O)c2ccccc21 (stereo unspecified) | inactive: 16% |
| CC(Oc1ccc(F)cc1)C(=O)Oc1ccc(N(C)S(=O)(=O)c2ccccc2)cc1 (stereo unspecified) | inconclusive: 52.6% |
| O=C(Nc1ccc(Cl)cc1)c1nc[nH]c1C(=O)NCCN(CCNC(=O)c1[nH]cnc1C(=O)Nc1ccc(Cl)cc1)CCNC(=O)c1[nH]cnc1C(=O)Nc1ccc(Cl)cc1 | active: 63.9% |
| C#CCOCCOCCOCCNc1nc(N2CCN(C(=O)CCCCCCCCCCNC(=O)[C@H]([C@@H](C)CC)n3cc(CCCCCN)nn3)CC2)nc(N2CCN(C(=O)CCCCCCCCCCNC(=O)[C@H]([C@@H](C)CC)n3cc(CCCCN=C(N)N)nn3)CC2)n1 | active: 105% |
| COc1ccccc1N(CC(=O)NC1CC2CCC1C2)S(=O)(=O)c1ccc(C)cc1 (stereo unspecified) | inconclusive: 53.5% |
| Cc1ccc(N=c2oc3cc(O)ccc3cc2C(N)=O)cc1 | inactive: -1.74% |
| CSc1ccccc1NC(=O)CN(C)Cc1ccc(Br)cc1 | inconclusive: 56.2% |
| CCOC(=O)C1CCN(c2ncnc3c2[nH]c2cccc(OC)c23)CC1 | inactive: -16% |
| O=C(CCN1CCN(c2ccccc2)CC1)N/N=C/c1ccccc1OC(F)F | inconclusive: 59% |
| COc1ccccc1-c1ccc([C@@H]2C[C@H]3[C@H](CON3C)CN2C(=O)c2ccc(-c3ccccc3)cc2)cc1 | inconclusive: 51% |
| CC(C)CN1CCN(Cc2nc(C(C)C)cs2)CC1CCO (stereo unspecified) | inconclusive: 165% |

| Structure (SMILES) | activity |
| --- | --- |
| COc1cccc(-c2cc(C(=O)NCC3CCCO3)c3ccccc3n2)c1 (stereo unspecified) | inactive: 1.93% |
| Cc1cc(C(=O)Cn2nc(C(=O)O)c3ccccc3c2=O)c(C)n1-c1ccc(OC(F)F)cc1 | active: 68.1% |
| CCNCC(=O)Nc1ccc(N2CCOCC2)cc1 | inconclusive: 81% |
| O=C(CSc1nnc(COc2ccc(Cl)cc2)o1)OC1CCCCC1 | inconclusive: 50.3% |
| N#Cc1nc(COc2ccccc2Cl)oc1N1CCCCCC1 | inconclusive: 51.5% |
| O=C(OCc1ccccc1)N1CCC2CC1c1c(Cl)cccc12 (stereo unspecified) | active: 58.6% |
| Cc1cccc(-n2c(CNC(=O)COc3ccccc3)nnc2SCC(=O)Nc2nccs2)c1 | inconclusive: 58.6% |
| CSC1=NC(C)(C)C=C(/C=C/c2c(Cl)cccc2Cl)N1 | inconclusive: 86.5% |
| Cc1cc(C)c(S(=O)(=O)N2CCCCCC2)cc1Br | inconclusive: 55.9% |
| Cc1cc(C)cc(NC(=O)c2cccn2-c2ncc(C(F)(F)F)cc2Cl)c1 | inactive: -11.5% |
| COC(=O)c1ccc(COc2cccc3c2CCN(Cc2cccc(C)c2)C3=O)o1 | inconclusive: 52.5% |
| CCc1ccc(CN(C)C(=O)c2cc(COc3cccc4cnccc34)on2)cc1 | inconclusive: 56.6% |
| CCCN(CCC)C(=O)c1oc2ccccc2c1NC(=O)Cc1cccc(OC)c1 | inconclusive: 55.1% |
| Cc1ccccc1SCC(=O)OCC(=O)NCCNC(=O)COC(=O)CSc1ccccc1C | inconclusive: 50.6% |
| CNc1nnc(-c2ccc(C)cc2)c2ccccc12 | inconclusive: 69.9% |
| Cc1cc(C)cc(OC(=O)c2cccnc2)c1 | inactive: 5.66% |
| O=C(O)c1nn(Cc2ncc(-c3cccc(Cl)c3)o2)c(=O)c2ccccc12 | active: 51.6% |
| CCC(C)(C)c1ccc(OCC(=O)N(C)C)c(C(C)(C)CC)c1 | inconclusive: 50.3% |
| Cc1c(O)cc2n(c1=O)-c1ccccc1C2(C)C | inactive: -10.1% |
| O=c1cc(-c2ccccc2Cl)oc2c(NS(=O)(=O)c3cc(Cl)cc(Cl)c3O)ccc(O)c12 | inactive: -2.32% |
| CCC(C)c1ccc(NC(=S)NCc2ccccc2OC)cc1 (stereo unspecified) | inactive: -4.42% |
| CCc1ccc(Nc2n[n+](-c3ccccc3)c(-c3ccc(N(CC)CC)cc3)s2)cc1 | inactive: -10% |

| Structure (SMILES) | activity |
| --- | --- |
| CCN1C(=O)c2cccc3c(S(=O)(=O)Nc4ccccc4)ccc1c23 | inactive: 19% |
| COc1ccc(C2CC(c3ccccc3)=NN2C(=O)COC(=O)c2cccc(S(=O)(=O)N3CCOCC3)c2)cc1 (stereo unspecified) | active: 60.4% |
| Cc1ccc(CNc2ccc(N3CCOCC3)cc2)s1 | inconclusive: 111% |
| COC(=O)C1=C(C)NC(=S)NC1c1ccc(OC(=O)c2ccco2)cc1 (stereo unspecified) | inconclusive: 57.6% |
| CN1C(=O)c2ccc(C(=O)NCc3ccc4c(c3)OCO4)cc2C1=O | inactive: -9.25% |
| COc1ccc(C(=O)COC(=O)c2c(-c3ccccc3)noc2C)c(OC)c1 | inactive: -3.91% |
| CCOc1ccc(NCc2cccn2-c2nnc(N3CCC(C(=O)NCCCN4CCCCC4)CC3)s2)cc1 | inconclusive: 51.6% |
| Cc1ccc(NC(=O)Cn2cc(C(=O)C3CC3)c3ccccc32)c(C)c1 | active: 76.4% |
| COc1ccc(CNC(=O)CN(Cc2ccc(C)cc2)S(=O)(=O)c2ccc(Cl)cc2)cc1 | active: 51.5% |
| Cc1cc2oc(=O)cc(CN(C)Cc3ccccc3)c2cc1C(C)C | active: 64.5% |
| O=C(NCc1ccco1)c1cccc2c(-c3ccc(F)c(F)c3)coc12 | inconclusive: 50.9% |
| Cc1ccc2nc(SCC(=O)O)nc(C)c2c1 | inconclusive: 86.2% |
| COc1cc(/C=C/C(=O)Nc2ccc3nc4n(c(=O)c3c2)CCCC4)cc(OC)c1OC | inactive: 20.3% |
| CCOC(=O)c1c(-c2cccs2)csc1NC(=O)CN1CC(C)OC(C)C1 (stereo unspecified) | inconclusive: 53.7% |
| CC(=O)Nc1ccc(Oc2nc(-c3ccccn3)nc3ccccc23)cc1 | inactive: -1.17% |
| COc1ccc(C)c2sc(N(CCN(C)C)C(=O)c3ccc4ccccc4c3)nc12 | inactive: 3.34% |
| CN1CCN(C(=S)c2ccc(-c3cccc(Cl)c3Cl)o2)CC1 | inactive: 1.23% |
| CC(=O)OCC(OC(C)=O)C(OC(C)=O)C(OC(C)=O)C(=O)Nc1ccccc1 (stereo unspecified) | inconclusive: 89.7% |
| O=C(c1cc(COc2c(F)cccc2F)on1)N1CCC(c2ccccc2Cl)C1 (stereo unspecified) | inconclusive: 54% |
| COC(=O)C(C)n1cnc2c(nnn2-c2cccc(Cl)c2)c1=O (stereo unspecified) | inconclusive: 86.7% |
| CCCCCCCCCCOC(=O)Cn1c(COc2ccc(Cl)cc2)[n+](C)c2ccccc21 | inactive: 3.47% |
| COCCN(C(=O)C1CCC1)c1nnc(-c2cccnc2)s1 | inactive: 6.7% |

| Structure (SMILES) | activity |
| --- | --- |
| Nc1cc(=O)[nH]c(SCC(=O)N2N=C(c3ccc4ccccc4c3)CC2c2ccccc2)n1 (stereo unspecified) | active: 53% |
| O=C(CN1CCC(C(=O)c2cccc(Cl)c2)CC1)Nc1ccc(C(=O)O)cc1 | inconclusive: 60.7% |
| Nc1nc(NCCOCCO)nc(N2CCCCCC2)c1[N+](=O)[O-] | inactive: 8.37% |
| COc1ccc(C[C@@H]2c3cc(O)c(OC)cc3CCN2C)cc1O | inactive: -6.37% |
| CCCCn1c(C)cc(C)c(S(=O)(=O)c2ccccc2C)c1=O | active: 58.8% |
| COc1ccc(NC(=O)CN2CCN(c3nc(-c4ccc(F)cc4)cs3)CC2)c(OC)c1 | active: 53.9% |
| COc1ccc2sc(-c3ccc(S(C)(=O)=O)cc3)c(-c3ccc(C(N)=O)cc3)c2c1 | inconclusive: 52% |
| Cc1ccc(Cc2cnc(N3C(=N)SC(c4ccccc4)C3=O)s2)cc1 (stereo unspecified) | inconclusive: 52.6% |
| Cc1cc(C)c2c(=O)n3c(nc2c1)C(Cc1ccc(O)cc1)NC(=O)c1cc2ccccc2cc1-3 (stereo unspecified) | active: 58.7% |
| COc1cccc(NC(=S)N(Cc2ccc(C(=O)O)cc2)Cc2ccc(OC)c(OC)c2)c1 | inconclusive: 137% |
| COc1ccc(CCN(Cc2nc3ccccc3c(=O)[nH]2)C(=O)C2CC2)cc1 | inconclusive: 65.9% |
| COc1ccc(C(=O)CSc2nc(-c3ccccn3)nc(C)c2Cl)cc1 | inactive: -4.06% |
| COc1ccc(-c2ccc(C(=O)Nc3ccc(NC(C)=O)cc3)c3occc23)c(C)c1 | inconclusive: 50.2% |
| Cc1cc(OCCn2nc(C(=O)O)c3ccccc3c2=O)ccc1C(C)C | active: 83.2% |
| CCCCCCCCN1[C@@H](CC(=O)OCC)c2cc(C(F)(F)F)ccc2S1(=O)=O | active: 70.2% |
| CCCCCn1nc(C(=O)OCc2nnc(-c3ccccc3)o2)c2ccccc2c1=O | inconclusive: 62.8% |
| c1ccc(CSc2nnc(-c3sccc3-n3cccc3)o2)cc1 | inconclusive: 50.1% |
| Cc1ccc(-n2ncc3c(=O)n(CC(N)=O)cnc32)cc1C | inactive: 3.56% |
| CC1(C(=O)NCc2ccc3c(c2)OCO3)CCN1C(=O)C1(c2ccc(Cl)cc2)CC1 (stereo unspecified) | inconclusive: 51.7% |
| Clc1ccc(OCc2nn3c(C4CCCCC4)nnc3s2)cc1 | active: 54.3% |
